Results published in the supplement of paper PMC3334620.
Over roughly 33,000 sequences, “E-score (-0.5 to 0.5)” has its median near -0.017; the highest 2% begin near 0.3. The list shows a part of the results.

Target: T1, Sut1 (UniProt P53032)
T1 sequence: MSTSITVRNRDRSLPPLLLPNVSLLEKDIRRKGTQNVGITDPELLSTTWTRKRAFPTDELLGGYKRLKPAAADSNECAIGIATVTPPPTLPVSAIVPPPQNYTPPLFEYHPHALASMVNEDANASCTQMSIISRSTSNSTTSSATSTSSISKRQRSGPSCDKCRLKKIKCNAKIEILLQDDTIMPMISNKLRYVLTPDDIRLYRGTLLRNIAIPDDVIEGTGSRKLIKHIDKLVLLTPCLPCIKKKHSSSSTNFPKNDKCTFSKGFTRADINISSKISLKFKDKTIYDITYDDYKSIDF
Experiment: PBM E-score (8-mer binding enrichment) (E-score (-0.5 to 0.5)); higher = stronger / more preferred TF binding; most listed sequences are background and not binding sites
Conditions: protein concentration: 200 nM; construct: GST-full length
Outline: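 E-scores (a modified Wilcoxon-Mann-Whitney statistic) were assigned by the Universal PBM Analysis Suite to every ungapped eight-base word pooled with its reverse complement. The input came from universal all-10-mer Agilent arrays made double-stranded by primer extension and probed with GST-tagged yeast transcription factors at about 100-200 nM. Fluorescent anti-GST detected bound protein, and masliner normalised the scans.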

| Sequence | PBM E-score |
| --- | --- |
| AGCGCCCA | -0.407 |
| GTCCGCTA | 0.258 |
| GAAGTGAA | 0.00969 |
| ATCCGGTC | -0.00108 |
| GTCCATAA | -0.0692 |
| CCGGTCAG | -0.0559 |
| AATATCCT | 0.00199 |
| GCCTAGCA | -0.349 |
| ACTGCAAC | -0.189 |
| GACATGTA | 0.0695 |
| AAATGCCT | 0.00788 |
| CATCTAAA | 0.0229 |
| GGGGCAAA | -0.167 |
| GCCGAAGA | 0.0758 |
| ACCACAAC | 0.0947 |
| ATTTAGCG | 0.0651 |
| GACTGCTA | -0.152 |
| CCGCCCAG | 0.0308 |
| ACTGCATA | 0.0736 |
| CAATGGAC | -0.107 |
| CTCGGGCC | -0.089 |
| ACTTAACT | 0.153 |
| CTGGGCTC | -0.266 |
| GAGCGAAA | 0.195 |

| Sequence | PBM E-score |
| --- | --- |
| CGAGTCCA | -0.139 |
| CCCAGACC | -0.143 |
| AAGGGTGA | -0.134 |
| CCGTCTCC | 0.0135 |
| CAGGAGCG | -0.0908 |
| GTGAGCGA | -0.0389 |
| AGGCTGAA | -0.0932 |
| GACCGTGC | -0.102 |
| AGAGACCC | -0.15 |
| ACTCGTAT | -0.0044 |
| CACACTAA | 0.169 |
| AAGTACGA | 0.124 |
| GGGACGGA | 0.0681 |
| CAGGCATA | -0.184 |
| GATAGCAC | -0.0925 |
| GACTGCTC | -0.143 |
| TCCCACCA | -0.19 |
| GAAGCCGC | 0.0214 |
| CGGAACAG | 0.232 |
| AAAATGTT | 0.169 |
| GTAAATCA | 0.191 |
| GCTGGACC | -0.29 |
| GAGTAATC | 0.0879 |
| ATGTATCA | 0.129 |

| Sequence | PBM E-score |
| --- | --- |
| AGAATCAG | 0.0039 |
| AGTGCTCC | -0.0835 |
| CGAACCAC | -0.0343 |
| AACCGATT | 0.204 |
| ATGTGTGG | -0.0951 |
| GGCGGTAC | -0.0892 |
| GATGCGCA | -0.167 |
| TCAGCGCA | -0.0352 |
| CTGGTAAG | -0.0364 |
| ACATATTA | 0.181 |
| AAGAGGAA | 0.0255 |
| AGGTTTGA | 0.0404 |
| ACTCGTTA | 0.0423 |
| GGAGCGTA | 0.0804 |
| ACAAATAT | 0.339 |
| TCTCTCAA | 0.143 |
| AGACAACA | 0.0054 |
| AAGACACC | -0.0814 |
| ATTAGTCC | 0.254 |
| AAACTAAC | 0.27 |
| AAGCGTTC | -0.0703 |
| GATTCCCA | -0.188 |
| AGACATCT | 0.0692 |
| AGCATCCT | -0.119 |

| Sequence | PBM E-score |
| --- | --- |
| AGCACCGG | 0.00205 |
| GGTGTAGA | -0.149 |
| GCCTGGCA | -0.3 |
| ATCTCCAC | 0.00944 |
| AATAAAAT | 0.297 |
| ATGCAATA | 0.024 |
| TCACTTCA | -0.0869 |
| GCAACAAC | 0.0444 |
| CGAAATAA | 0.313 |
| ACAACCAA | -0.0665 |
| GAGCATAC | -0.0746 |
| AAAGCTTA | 0.16 |
| AGTCCCAC | -0.142 |
| CGAATTCC | 0.097 |
| GAACCCCC | -0.397 |
| AATAGTCC | 0.131 |
| ACCGAAGT | 0.133 |
| CGGACACA | -0.034 |
| GGGAGGAC | -0.285 |
| ATGCCTCC | -0.176 |
| CCCTCAGA | -0.309 |
| TTAGAGAA | -0.0956 |
